The target of assay [1] is T1, mutant IRS1 peptide with Y612 and M615 replaced by alanine (AMPAS) (human).
T1 sequence (peptide): CHTDDGAMPASPGVA
The assay can be described thus: pull-down; IRS1 peptides coupled to SulfoLink beads; 10 µl beads with 1 µg purified AP2M1 (160–435), Buffer A (50 mM Tris pH 7.5, 0.2 M NaCl, 0.1% NP-40), 4 °C overnight; SDS-PAGE, Coomassie; both purified.

Protein sequences, listed by entry. Tags and fused reporters are not part of them. Lines headed by an entry give the natural chain unless they say otherwise; changes in a name come on top. Chains listed by the source or under a name are the forms on record and can include a tag or linker. Residues count along the entry.
UniProt O60566: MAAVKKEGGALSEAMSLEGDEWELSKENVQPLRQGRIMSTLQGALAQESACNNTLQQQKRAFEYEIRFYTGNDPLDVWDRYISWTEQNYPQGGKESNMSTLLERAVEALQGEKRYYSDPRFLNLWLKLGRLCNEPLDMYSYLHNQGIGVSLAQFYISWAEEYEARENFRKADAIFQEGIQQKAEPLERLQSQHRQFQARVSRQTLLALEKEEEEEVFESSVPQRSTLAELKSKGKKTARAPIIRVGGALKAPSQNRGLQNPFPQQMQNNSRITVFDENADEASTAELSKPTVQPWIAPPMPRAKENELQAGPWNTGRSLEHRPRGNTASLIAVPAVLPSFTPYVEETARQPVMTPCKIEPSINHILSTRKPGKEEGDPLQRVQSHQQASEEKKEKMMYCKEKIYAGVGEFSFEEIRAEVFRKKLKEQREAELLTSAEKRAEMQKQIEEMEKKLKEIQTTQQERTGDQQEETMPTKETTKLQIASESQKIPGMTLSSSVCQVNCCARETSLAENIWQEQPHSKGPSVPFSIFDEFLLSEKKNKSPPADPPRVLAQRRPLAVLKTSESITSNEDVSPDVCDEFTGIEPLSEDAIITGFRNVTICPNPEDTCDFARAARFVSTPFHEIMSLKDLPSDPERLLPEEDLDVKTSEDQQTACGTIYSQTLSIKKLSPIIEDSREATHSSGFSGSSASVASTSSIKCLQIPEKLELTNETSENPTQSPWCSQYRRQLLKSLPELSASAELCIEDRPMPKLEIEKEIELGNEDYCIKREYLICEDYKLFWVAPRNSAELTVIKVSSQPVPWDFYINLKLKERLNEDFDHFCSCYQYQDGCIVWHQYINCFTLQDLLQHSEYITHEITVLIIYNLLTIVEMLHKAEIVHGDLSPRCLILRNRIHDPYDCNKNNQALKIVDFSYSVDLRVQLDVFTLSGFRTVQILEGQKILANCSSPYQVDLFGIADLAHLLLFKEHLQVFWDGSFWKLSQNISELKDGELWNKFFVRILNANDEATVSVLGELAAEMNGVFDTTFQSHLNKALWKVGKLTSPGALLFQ
UniProt Q96CW1: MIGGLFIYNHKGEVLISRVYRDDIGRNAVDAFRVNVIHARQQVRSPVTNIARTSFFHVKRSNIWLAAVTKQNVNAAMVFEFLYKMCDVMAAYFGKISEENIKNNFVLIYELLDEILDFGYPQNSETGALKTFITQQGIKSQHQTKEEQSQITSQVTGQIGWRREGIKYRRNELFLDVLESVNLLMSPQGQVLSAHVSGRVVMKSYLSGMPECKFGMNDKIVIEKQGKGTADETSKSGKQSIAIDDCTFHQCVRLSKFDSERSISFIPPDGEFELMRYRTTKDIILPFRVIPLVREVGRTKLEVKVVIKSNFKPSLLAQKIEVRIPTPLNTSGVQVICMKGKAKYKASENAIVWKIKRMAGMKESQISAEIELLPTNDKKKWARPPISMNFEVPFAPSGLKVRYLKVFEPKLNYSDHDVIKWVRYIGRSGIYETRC
UniProt P63010: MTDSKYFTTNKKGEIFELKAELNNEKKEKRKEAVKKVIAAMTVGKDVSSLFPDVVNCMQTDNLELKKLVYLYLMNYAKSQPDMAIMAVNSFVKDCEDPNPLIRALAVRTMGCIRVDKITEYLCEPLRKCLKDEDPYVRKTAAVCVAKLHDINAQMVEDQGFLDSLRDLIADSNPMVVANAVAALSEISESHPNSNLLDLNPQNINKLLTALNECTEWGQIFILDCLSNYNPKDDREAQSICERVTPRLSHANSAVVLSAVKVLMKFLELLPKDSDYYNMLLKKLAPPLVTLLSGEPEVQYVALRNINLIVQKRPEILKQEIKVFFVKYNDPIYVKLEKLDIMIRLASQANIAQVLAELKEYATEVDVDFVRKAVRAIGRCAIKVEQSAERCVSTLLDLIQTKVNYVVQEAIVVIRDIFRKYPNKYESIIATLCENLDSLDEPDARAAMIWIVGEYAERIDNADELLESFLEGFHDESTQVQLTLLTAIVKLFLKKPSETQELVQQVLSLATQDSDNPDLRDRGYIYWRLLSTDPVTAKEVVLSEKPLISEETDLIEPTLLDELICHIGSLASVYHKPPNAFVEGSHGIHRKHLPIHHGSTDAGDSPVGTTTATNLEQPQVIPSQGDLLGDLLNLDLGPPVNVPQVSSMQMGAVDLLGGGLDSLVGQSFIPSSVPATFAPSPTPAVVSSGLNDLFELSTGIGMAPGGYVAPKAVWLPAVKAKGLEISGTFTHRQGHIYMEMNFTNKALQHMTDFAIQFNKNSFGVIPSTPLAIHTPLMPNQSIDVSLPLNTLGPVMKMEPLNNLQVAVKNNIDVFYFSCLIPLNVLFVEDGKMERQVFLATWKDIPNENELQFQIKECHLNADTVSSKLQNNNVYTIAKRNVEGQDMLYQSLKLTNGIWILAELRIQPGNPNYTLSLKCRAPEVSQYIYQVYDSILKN
UniProt P35568: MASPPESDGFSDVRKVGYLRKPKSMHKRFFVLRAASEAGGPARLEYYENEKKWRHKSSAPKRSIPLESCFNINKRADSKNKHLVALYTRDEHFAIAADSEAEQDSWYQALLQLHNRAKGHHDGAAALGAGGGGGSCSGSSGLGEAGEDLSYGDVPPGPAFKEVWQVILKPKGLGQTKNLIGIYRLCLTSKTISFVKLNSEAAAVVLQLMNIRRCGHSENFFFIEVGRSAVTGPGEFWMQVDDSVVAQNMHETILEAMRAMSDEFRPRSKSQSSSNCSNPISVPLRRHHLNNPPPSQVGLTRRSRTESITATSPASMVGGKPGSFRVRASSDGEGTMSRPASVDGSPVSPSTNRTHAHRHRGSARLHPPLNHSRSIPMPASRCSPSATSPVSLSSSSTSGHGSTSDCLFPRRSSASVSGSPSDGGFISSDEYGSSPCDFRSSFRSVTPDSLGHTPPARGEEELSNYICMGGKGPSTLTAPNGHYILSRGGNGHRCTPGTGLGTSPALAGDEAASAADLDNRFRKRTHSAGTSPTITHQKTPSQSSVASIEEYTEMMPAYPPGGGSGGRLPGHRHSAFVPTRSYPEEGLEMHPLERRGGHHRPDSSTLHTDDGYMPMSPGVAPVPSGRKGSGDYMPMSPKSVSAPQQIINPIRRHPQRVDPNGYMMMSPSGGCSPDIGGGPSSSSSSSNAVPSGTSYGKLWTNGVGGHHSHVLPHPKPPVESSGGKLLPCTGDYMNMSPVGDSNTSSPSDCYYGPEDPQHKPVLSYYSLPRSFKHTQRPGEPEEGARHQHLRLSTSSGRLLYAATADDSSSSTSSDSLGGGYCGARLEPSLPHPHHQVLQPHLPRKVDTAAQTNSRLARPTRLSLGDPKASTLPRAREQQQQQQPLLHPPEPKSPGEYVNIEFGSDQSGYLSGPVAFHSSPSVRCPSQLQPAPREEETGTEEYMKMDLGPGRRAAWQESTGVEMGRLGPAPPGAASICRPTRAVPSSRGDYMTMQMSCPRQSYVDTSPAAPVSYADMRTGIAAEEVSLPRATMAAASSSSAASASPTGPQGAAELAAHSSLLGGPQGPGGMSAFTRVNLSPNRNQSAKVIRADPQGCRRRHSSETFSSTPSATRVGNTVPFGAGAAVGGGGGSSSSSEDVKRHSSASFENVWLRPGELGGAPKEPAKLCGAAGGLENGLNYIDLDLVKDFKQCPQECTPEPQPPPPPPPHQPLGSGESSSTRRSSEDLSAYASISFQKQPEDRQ
IVT IRS1 (residues 449–864) 3YA (Y612A/Y632A/Y662A) (P35568, form named): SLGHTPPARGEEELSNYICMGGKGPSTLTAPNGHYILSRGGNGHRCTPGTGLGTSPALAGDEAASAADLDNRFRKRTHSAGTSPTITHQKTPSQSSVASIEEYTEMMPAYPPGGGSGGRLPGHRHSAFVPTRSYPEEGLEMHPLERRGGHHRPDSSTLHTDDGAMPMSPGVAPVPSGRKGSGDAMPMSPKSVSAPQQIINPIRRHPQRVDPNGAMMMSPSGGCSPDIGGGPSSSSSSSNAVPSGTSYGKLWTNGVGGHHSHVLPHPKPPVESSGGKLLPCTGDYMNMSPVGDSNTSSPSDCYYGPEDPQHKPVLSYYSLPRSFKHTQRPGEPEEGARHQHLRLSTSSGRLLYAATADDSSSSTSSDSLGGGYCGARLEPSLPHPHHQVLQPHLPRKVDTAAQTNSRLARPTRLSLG

For assay [2], the target named is Myc-BUBR1 full length (WT) (human) (UniProt O60566). Briefly: co-IP; 293FT cells transfected with GFP-AP2B1 and Myc-BUBR1 plasmids; anti-Myc-BUBR1 IP from total cell lysate, blotted with anti-Myc and anti-AP2B1 or anti-GFP.
In assay [3] the target is GST-AP2M1 (full-length human AP2M1) (human) (UniProt Q96CW1). Briefly: pull-down; GST-AP2M1 on glutathione beads incubated with IVT IRS1 or IRS2 products diluted in cell lysis buffer, 4 °C, 2 h; Coomassie or immunoblot; only the target purified. For orientation: Immunoblotting shows a protein as a band on a membrane.

These are yes or no findings as the source states them, for the method shown. For some of these results: In cells and extracts the contact can be indirect. Some binding calls cover weakened binding; strength is not graded here.

Turning to “AP2M1 (residues 160–435) (from UniProt Q96CW1 160-435) (domain or fragment)”, the binding result in assay [1] is on record as “no binding (tested: 1 μg AP2M1 on 10 µl peptide beads)”.
For “GFP-AP2B1 full length (FL) (from UniProt P63010 1-937)”, the binding entry in assay [2] is recorded as “binds”.
Take “In vitro-translated IRS1 (residues 449–864) (from UniProt P35568 449-864) (domain or fragment)”: the binding entry in assay [3] was “binds”.
The same measure, in the same setting: for “IVT Myc-IRS1 YXXΦ-containing central region (residues 449–679) (from UniProt P35568 449-679) (domain or fragment)” the value was “binds”; for “IVT IRS1 (residues 449–864) 3YA (Y612A/Y632A/Y662A) (from UniProt P35568 449-864) (domain or fragment)”, “binds”; for “in vitro-translated (IVT) Myc-IRS1 full-length (from UniProt P35568 1-1242)”, “binds”.

B1: IVT IRS2 fragment (residues 520–888) (domain or fragment, UniProt P81122 520-888)
chain: SIAETPPARDGSGGELYGYMSMDRPLSHCGRPYRRVSGDGAQDLDRGLRKRTYSLTTPARQRQVPQPSSASLDEYTLMRATFSGSSGRLCPSFPASSPKVAYNPYPEDYGDIEIGSHKSSSSNLGADDGYMPMTPGAALRSGGPNSCKSDDYMPMSPTSVSAPKQILQPRLAAALPPSGAAVPAPPSGVGRTFPVNGGGYKASSPAESSPEDSGYMRMWCGSKLSMENPDPKLLPNGDYLNMSPSEAGTAGTPPDFSAALRGGSEGLKGIPGHCYSSLPRSYKAPCSCSGDNDQYVLMSSPVGRILEEERLEPQATPGAGTFGAAGGSHTQPHHSAVPSSMRPSAIGGRPEGFLGQRCRAVRPTRLSLE
With B1, in assay [3], the binding result is recorded as “binds”.
